# Results as given in patent US11155596B2, “Polypeptide” (AFFIBODY AB, priority 2016, dated 2021).
# pEC50, pKd: −log10 of the molar value.
# What was measured:
# hPD-L1 [1] = biological target: T1, hPD-L1 (Homo sapiens, UniProt Q9NZQ7); test: ELISA EC50 analysis (target titration) of primary Z variants; type: binding; details: periplasmic Z-ABD fusions captured on anti-ABD antibody; biotinylated hPD-L1 40 nM diluted 1:4 to 32 pM
# Experimental: ELISA screening of Z variants: The binding of Z variants to hPD-L1 was analyzed in ELISA assays. Half-area 96-well ELISA plates (Costar, cat. no. 3690) were coated at 4° C. overnight with 2 μg/ml of an anti-ABD goat antibody (produced in-house) diluted in coating buffer (50 mM sodium carbonate, pH 9.6; Sigma, cat. no. C3041). The antibody solution was poured off and the wells were washed in water and blocked with 100 μl of PBSC (PBS supplemented with 0.5% casein; Sigma, cat. no. C8654) for 1 to 3 h at RT. The blocking solution was discarded and 50 μl periplasmic solutions, diluted 1:1 with PBST 0.05%, were added to the wells and incubated for 1.5 to 2.5 h at RT under slow agitation. As a blank control, PBST 0.05% was added instead of a periplasmic sample. The supernatants were poured off and the wells were washed 4 times with PBST 0.05%. Then, 50 μl of biotinylated hPD-L1 at a concentration of 0.32 nM in PBSC was added to each well. The plates were incubated for 1 h at RT followed by washes as described above. Streptavidin conjugated HRP (Thermo Scientific, cat. no. N100) diluted 1:30,000 in PBSC, was added to the wells and the plates were incubated for approximately 1 h. After washing as described above, 50 μl ImmunoPure TMB substrate (Thermo Scientific, cat. no. 34021) was added to the wells and the plates were treated according to the manufacturer's recommendations.
# EC50 analysis of Z variants: A selection of PD-L1 binding Z variants was subjected to an analysis of the response against a dilution series of biotinylated hPD-L1 following the procedure described above. The Z variants were diluted 1:1 in PBST 0.05%. Biotinylated hPD-L1 was added at a concentration of 40 nM and diluted stepwise 1:4 down to 32 pM. As a background control, all Z variants were also assayed with no target protein added. Periplasm samples containing the PD-L1 binding Z variant Z13112 (SEQ ID.NO:777) were included on each plate and analyzed as positive control. […] Data were analyzed using GraphPad Prism 5 and non-linear regression, and EC50 values (the half maximal effective concentration) were calculated.
# hPD-L1 [2] = biological target: T1, hPD-L1; test: Biacore kinetic analysis of primary Z variants, hPD-L1; type: binding; details: His6-tagged Z variants over immobilized hPD-L1; 1:1 model
# Experimental: Biacore kinetic and specificity analysis: Kinetic constants (ka and kd) and affinities (KD) for hPD-L1 were determined for 14 Hiss-tagged Z variants using a Biacore 2000 instrument (GE Healthcare). Some of the Z variants were also tested for binding against the sequence-related proteins hPD-L2, hB7-H3, hB7-H4 and mPD-L1 (mouse PD-L1 Fc Chimera, R&D Systems, cat. no. 1019-B7).
# hPD-L1, hPD-L2, hB7-H3, hB7-H4 and mPD-L1 were immobilized in separate flow cells on the carboxylated dextran layer of different CM5 chip surfaces (GE Healthcare, cat. no. BR100012). The immobilization was performed using amine coupling chemistry according to the manufacturer's protocol and using HBS-EP as running buffer (0.01 M HEPES pH 7.4, 0.15 M NaCl, 3 mM EDTA, 0.005% v/v Surfactant P20, GE Healthcare, cat. no. BR100188). […] One flow cell surface on each chip was activated and deactivated for use as blank during analyte injections. In the kinetic experiment, HBS-EP was used as running buffer and the flow rate was 50 μl/min. The analytes, i.e. the Z variants, were each diluted in HBS-EP buffer within a concentration range of 1000 to 0.01 nM and injected for 5 min, followed by dissociation in running buffer for 15-25 min. After dissociation, the surfaces were regenerated with one or two injections of 0.1% SDS. Kinetic constants were calculated from the sensorgrams using the Langmuir 1:1 model of BiaEvaluation software 4.1 (GE Healthcare).
# hPD-L1 binding to hPD-1 = biological target: T2, hPD-L1 binding to hPD-1 (Homo sapiens, UniProt Q9NZQ7); test: AlphaLISA blocking assay (Example 3); details: His6-tagged Z variants 250 nM to 12 pM; 10 nM biotinylated hPD-L1; read-out: IC50 (M), inhibiting binding of PD-L1 to PD-1
# T2 construct: 1086-PD-050 (hPD-1)
# T2 sequence (Q9NZQ7 19-239 limits assumed): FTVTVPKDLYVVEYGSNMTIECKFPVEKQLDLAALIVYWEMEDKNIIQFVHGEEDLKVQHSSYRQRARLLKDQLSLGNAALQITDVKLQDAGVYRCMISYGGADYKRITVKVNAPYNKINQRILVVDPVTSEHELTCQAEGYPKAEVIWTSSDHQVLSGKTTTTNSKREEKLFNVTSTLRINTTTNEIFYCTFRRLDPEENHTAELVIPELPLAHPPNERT
# Experimental: AlphaLISA blocking assay: The potential of Z variants to inhibit binding of PD-L1 to PD-1 was analyzed by AlphaLISA and recordings in an EnSpire multiplate reader 2300 (Perkin Elmer). hPD-1 (human PD-1 Fc-chimera; R&D Systems, cat. no. 1086-PD-050) was immobilized on AlphaLISA Acceptor beads (Perkin Elmer, cat. no. 6772002) according to the manufacturer's recommendations. Stepwise serial dilutions 1:3 of Hiss-tagged Z variants to final concentrations of 250 nM to 12 pM were made in a 384 plate (Perkin Elmer, cat. no. 6005350) and incubated for 1 h with 10 nM biotinylated hPD-L1 in AlphaLISA buffer (Perkin Elmer, cat. no. AL000F). hPD-1-coated Acceptor beads were added to a final concentration of 10 μg/ml and incubated for 1 h. Finally, streptavidin coated Donor beads (Perkin Elmer, cat. no. 6772002) were added to a final concentration of 40 μg/ml and incubated for 30 min. All incubations were performed at RT in the dark. The plate was analyzed in the EnSpire instrument and the IC50 values were calculated using GraphPad Prism 5.
# [3] = test system: PD-L1 expressing THP-1 cells (IFNγ stimulated); test: Cell binding analysis by FACS, THP-1 cells; type: cell-based; details: IFNγ stimulated THP-1 cells; 10 μg/ml His6-tagged Z variant (antibody 1 μg/ml); normalized against Z13091
# Experimental: Cell binding analysis by FACS: The potential of Z variants to bind PD-L1 expressing cells was investigated using Fluorescence Activated Cell Sorting (FACS). THP-1 cells, cultivated in RPMI (Lonza, cat. no. BE12-702F) containing 10% FBS were stimulated with 10 ng/ml IFNg (R&D Systems, cat. no. 285-IF-100) overnight which results in up-regulation of PD-L1. 150,000 stimulated and unstimulated cells were pipetted per well of a v-bottomed 96 well plate (Nunc, cat. no. 277143) and the cells in the plate were subsequently pelleted at 400 g for 3 min at RT. The supernatants were removed and the cells were resuspended in 100 μl PBS plus 2.5% FBS (staining buffer) containing 10 μg/ml of the different His-tagged Z variants. […] Cells incubated with buffer alone were used as negative controls. The cells were incubated for 1 h at 8° C. in the dark, washed twice with 100 μl staining buffer and resuspended in 100 μl of staining buffer containing a goat anti-Z antibody (produced in house) at a concentration of 5 μg/ml. Cells stained with the positive control were treated with buffer only. The cells were incubated for 1 h at 8° C. in the dark, washed twice with 100 μl staining buffer and resuspended in 100 μl of staining buffer containing an Alexa Fluor 647 chicken anti-goat IgG antibody (Life technologies, cat. no. A21469) or an Alexa Fluor 647 goat anti-mouse IgG antibody (Life technologies cat. no. A21236). The cells were once again incubated for 1 h at 8° C. in the dark, washed twice with 100 μl staining buffer and resuspended in 200 μl of staining buffer. Data from 10,000 cells were obtained using a FACS Calibur ([…]) and the data was analyzed using Flowing software 2.5.0 (Turku University). Mean fluorescence intensity (MFI) was used as a read out of binding capacity.
# T1 sequence (Q9NZQ7 19-290): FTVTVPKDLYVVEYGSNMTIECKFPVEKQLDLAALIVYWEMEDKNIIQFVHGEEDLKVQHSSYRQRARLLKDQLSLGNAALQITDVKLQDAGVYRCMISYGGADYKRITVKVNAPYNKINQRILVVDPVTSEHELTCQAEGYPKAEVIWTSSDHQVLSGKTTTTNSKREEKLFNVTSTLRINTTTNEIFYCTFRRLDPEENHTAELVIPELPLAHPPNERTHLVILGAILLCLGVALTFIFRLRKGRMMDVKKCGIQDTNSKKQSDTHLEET
Substance,pEC50 (hPD-L1 [1]),pKd (hPD-L1 [2]),ka (hPD-L1 [2]),kd (hPD-L1 [2]),IC50 (hPD-L1 binding to hPD-1),MFI (normalized) [3]
Z13112: primary PD-L1 binding Z variant (VDAKYAKERNAAAFEILTLPNLTNEQHWAFIWKLDDDPSQSSELLSEAKKLNDSQAPK; Engineered PD-L1 binding polypeptide),9.66,8.60,610000 M⁻¹ s⁻¹,0.0015 s⁻¹,3.9e-09 M,0.76
Z13304: primary PD-L1 binding Z variant (VDAKYAKERNNAASEILALPNLTQLQYWAFIWKLADDPSQSSELLSEAKKLNDSQAPK; Engineered PD-L1 binding polypeptide),9.49,8.39,1.6e+06 M⁻¹ s⁻¹,0.0064 s⁻¹,4.2e-08 M,0.75
